According to article PMC9911399, “Two distinct binding modes provide the RNA-binding protein RbFox with extraordinary sequence specificity”:
Changes are numbered by the printed parent chain; changes in the protein carry UniProt numbers. Some of the results follow.

T1: RBFOX1 RRM (Homo sapiens, UniProt Q9NWB1 109-208)
T1 sequence: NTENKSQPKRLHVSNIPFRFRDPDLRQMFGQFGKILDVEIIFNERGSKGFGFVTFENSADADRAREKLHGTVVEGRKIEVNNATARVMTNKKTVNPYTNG

B1: ACGUGUA (DNA:RNA)
RNA: GGGAGACCGGAAUUCAGAUUGUCCACGUGUAUUAAAUCCCGUCGUAGCCACCA
DNA 1: CAATCTGAATTCCGGTCTCCC
DNA 2: TGGTGGCTACGACGGGATT
B2: GGAUAGA (DNA:RNA)
RNA: B1 RNA with A25G, C26G, G27A, G29A, U30G
DNA 1: CAATCTGAATTCCGGTCTCCC
DNA 2: TGGTGGCTACGACGGGATT
B3: ACUAGUC (DNA:RNA)
RNA: B1 RNA with G27U, U28A, A31C
DNA 1: CAATCTGAATTCCGGTCTCCC
DNA 2: TGGTGGCTACGACGGGATT
B4: UUAUUCA (DNA:RNA)
RNA: B1 RNA with A25U, C26U, G27A, G29U, U30C
DNA 1: CAATCTGAATTCCGGTCTCCC
DNA 2: TGGTGGCTACGACGGGATT
B5: UAUGAAC (DNA:RNA)
RNA: GGGAGACCGGAAUUCAGAUUGUCCUAUGAACUUAAAUCCCGUCGUAGCCACCA
DNA 1: CAATCTGAATTCCGGTCTCCC
DNA 2: TGGTGGCTACGACGGGATT
B6: ACUCGAC (DNA:RNA)
RNA: B1 RNA with G27U, U28C, U30A, A31C
DNA 1: CAATCTGAATTCCGGTCTCCC
DNA 2: TGGTGGCTACGACGGGATT
B7: GCGCAGC (DNA:RNA)
RNA: B1 RNA with A25G, U28C, G29A, U30G, A31C
DNA 1: CAATCTGAATTCCGGTCTCCC
DNA 2: TGGTGGCTACGACGGGATT
B8: UGAUGCG (DNA:RNA)
RNA: B1 RNA with A25U, C26G, G27A, U30C, A31G
DNA 1: CAATCTGAATTCCGGTCTCCC
DNA 2: TGGTGGCTACGACGGGATT
B9: CGGCUAG (DNA:RNA)
RNA: B1 RNA with A25C, C26G, U28C, G29U, U30A, A31G
DNA 1: CAATCTGAATTCCGGTCTCCC
DNA 2: TGGTGGCTACGACGGGATT
B10: AAGGGGG (DNA:RNA)
RNA: B1 RNA with C26A, U28G, U30G, A31G
DNA 1: CAATCTGAATTCCGGTCTCCC
DNA 2: TGGTGGCTACGACGGGATT
B11: AUUGUUG (DNA:RNA)
RNA: B1 RNA with C26U, G27U, U28G, G29U, A31G
DNA 1: CAATCTGAATTCCGGTCTCCC
DNA 2: TGGTGGCTACGACGGGATT
B12: UUAGGCG (DNA:RNA)
RNA: B5 RNA with A26U, U27A, A29G, A30C, C31G
DNA 1: CAATCTGAATTCCGGTCTCCC
DNA 2: TGGTGGCTACGACGGGATT
B13: GGCGGGA (DNA:RNA)
RNA: B1 RNA with A25G, C26G, G27C, U28G, U30G
DNA 1: CAATCTGAATTCCGGTCTCCC
DNA 2: TGGTGGCTACGACGGGATT
B14: UUCGCUG (DNA:RNA)
RNA: B5 RNA with A26U, U27C, A29C, A30U, C31G
DNA 1: CAATCTGAATTCCGGTCTCCC
DNA 2: TGGTGGCTACGACGGGATT
B15: AAUCCUU (DNA:RNA)
RNA: B1 RNA with C26A, G27U, U28C, G29C, A31U
DNA 1: CAATCTGAATTCCGGTCTCCC
DNA 2: TGGTGGCTACGACGGGATT
B16: AUCUACC (DNA:RNA)
RNA: B1 RNA with C26U, G27C, G29A, U30C, A31C
DNA 1: CAATCTGAATTCCGGTCTCCC
DNA 2: TGGTGGCTACGACGGGATT
B17: CUCACGA (DNA:RNA)
RNA: B1 RNA with A25C, C26U, G27C, U28A, G29C, U30G
DNA 1: CAATCTGAATTCCGGTCTCCC
DNA 2: TGGTGGCTACGACGGGATT
B18: AGUGCUG (DNA:RNA)
RNA: B1 RNA with C26G, G27U, U28G, G29C, A31G
DNA 1: CAATCTGAATTCCGGTCTCCC
DNA 2: TGGTGGCTACGACGGGATT
B19: GCAUCAA (DNA:RNA)
RNA: B1 RNA with A25G, G27A, G29C, U30A
DNA 1: CAATCTGAATTCCGGTCTCCC
DNA 2: TGGTGGCTACGACGGGATT
B20: UCCUUUA (DNA:RNA)
RNA: B1 RNA with A25U, G27C, G29U
DNA 1: CAATCTGAATTCCGGTCTCCC
DNA 2: TGGTGGCTACGACGGGATT
B21: CUACAAA (DNA:RNA)
RNA: B5 RNA with U25C, A26U, U27A, G28C, C31A
DNA 1: CAATCTGAATTCCGGTCTCCC
DNA 2: TGGTGGCTACGACGGGATT
B22: ACAGAGC (DNA:RNA)
RNA: B5 RNA with U25A, A26C, U27A, A30G
DNA 1: CAATCTGAATTCCGGTCTCCC
DNA 2: TGGTGGCTACGACGGGATT
B23: AGCCCGA (DNA:RNA)
RNA: B1 RNA with C26G, G27C, U28C, G29C, U30G
DNA 1: CAATCTGAATTCCGGTCTCCC
DNA 2: TGGTGGCTACGACGGGATT
B24: GGCGCAA (DNA:RNA)
RNA: B5 RNA with U25G, A26G, U27C, A29C, C31A
DNA 1: CAATCTGAATTCCGGTCTCCC
DNA 2: TGGTGGCTACGACGGGATT
B25: AGACCGU (DNA:RNA)
RNA: B1 RNA with C26G, G27A, U28C, G29C, U30G, A31U
DNA 1: CAATCTGAATTCCGGTCTCCC
DNA 2: TGGTGGCTACGACGGGATT
B26: CCUGGGC (DNA:RNA)
RNA: B5 RNA with U25C, A26C, A29G, A30G
DNA 1: CAATCTGAATTCCGGTCTCCC
DNA 2: TGGTGGCTACGACGGGATT
B27: AGACCAG (DNA:RNA)
RNA: B1 RNA with C26G, G27A, U28C, G29C, U30A, A31G
DNA 1: CAATCTGAATTCCGGTCTCCC
DNA 2: TGGTGGCTACGACGGGATT
B28: ACGUAAC (DNA:RNA)
RNA: B1 RNA with G29A, U30A, A31C
DNA 1: CAATCTGAATTCCGGTCTCCC
DNA 2: TGGTGGCTACGACGGGATT
B29: AGUUGUG (DNA:RNA)
RNA: B1 RNA with C26G, G27U, A31G
DNA 1: CAATCTGAATTCCGGTCTCCC
DNA 2: TGGTGGCTACGACGGGATT
B30: CACUGCU (DNA:RNA)
RNA: B1 RNA with A25C, C26A, G27C, U30C, A31U
DNA 1: CAATCTGAATTCCGGTCTCCC
DNA 2: TGGTGGCTACGACGGGATT
B31: UGUGGAU (DNA:RNA)
RNA: B5 RNA with A26G, A29G, C31U
DNA 1: CAATCTGAATTCCGGTCTCCC
DNA 2: TGGTGGCTACGACGGGATT

molecular target: T1, RBFOX1 RRM; assay: EMSA; HiTS-Eq, 1 nM pool, 10 min; buffer printed only for the single-RNA assays: 10 mM Tris pH 7.5, 150 mM NaCl, 3.4 mM EDTA, 0.001% NP-40, 30 C; settings: tags: His6 N-terminal (pET28a); label: 5' 32P
Outline: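 Purified wild-type or mutant RbFox RRM at increasing concentrations was equilibrated with 1 nM of 5′-radiolabelled RNA carrying 7 randomized nucleotides for 10 min in 50 µL. Unbound RNA was separated by 8% native PAGE and sequenced. Relative association constants came from read-count changes of each RNA species compared with the control reaction, normalised to the cognate motif.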

First: B1
Second: B2
The binding signal of the first is lower: 0.0121 KA relative to UGCAUGU for the first, 0.0197 KA relative to UGCAUGU for the second.

Compared with B3, B4 is higher in binding signal: 0.00647 KA relative to UGCAUGU for the first, 0.00837 KA relative to UGCAUGU for the second.

Compared with B5, B6 is lower in binding signal: 0.0117 KA relative to UGCAUGU for the first, 0.00532 KA relative to UGCAUGU for the second.

First: B7
Second: B8
The binding signal of the first is lower: 0.0124 KA relative to UGCAUGU for the first, 0.0204 KA relative to UGCAUGU for the second.

First: B9
Second: B10
The binding signal of the first is higher: 0.02 KA relative to UGCAUGU for the first, 0.0117 KA relative to UGCAUGU for the second.

First: B11
Second: B12
The binding signal of the first is higher: 0.0192 KA relative to UGCAUGU for the first, 0.0139 KA relative to UGCAUGU for the second.

First: B13
Second: B14
The binding signal of the first is lower: 0.0172 KA relative to UGCAUGU for the first, 0.0215 KA relative to UGCAUGU for the second.

First: B15
Second: B16
The binding signal of the first is higher: 0.00132 KA relative to UGCAUGU for the first, 0.000901 KA relative to UGCAUGU for the second.

Compared with B17, B18 is higher in binding signal: 0.00443 KA relative to UGCAUGU for the first, 0.0208 KA relative to UGCAUGU for the second.

First: B19
Second: B20
The binding signal of the first is higher: 0.0078 KA relative to UGCAUGU for the first, 0.00187 KA relative to UGCAUGU for the second.

First: B21
Second: B22
The binding signal of the first is lower: 0.00273 KA relative to UGCAUGU for the first, 0.00408 KA relative to UGCAUGU for the second.

First: B23
Second: B24
The binding signal of the first is higher: 0.00979 KA relative to UGCAUGU for the first, 0.00871 KA relative to UGCAUGU for the second.

First: B25
Second: B26
The binding signal of the first is higher: 0.0106 KA relative to UGCAUGU for the first, 0.00806 KA relative to UGCAUGU for the second.

First: B27
Second: B28
The binding signal of the first is lower: 0.00483 KA relative to UGCAUGU for the first, 0.00521 KA relative to UGCAUGU for the second.

First: B29
Second: B30
The binding signal of the first is higher: 0.0137 KA relative to UGCAUGU for the first, 0.00744 KA relative to UGCAUGU for the second.

With B31 the binding signal was 0.0122 KA relative to UGCAUGU.
